# Assay results taken from PubChem BioAssay AID1347073 (National Center for Advancing Translational Sciences (NCATS), 2019).
# The whole screen tested about 45,000 compounds, of which about 200 (0.44%) were called active. Roughly 7% stayed inconclusive and do not appear here. The call rests on the fitted dose curve; in most records, active means well fitted activation curve with a large enough effect; inconclusive means small, poorly fitted or top-dose-only effect; inactive means no such curve, though single readings can be large or run the other way. The list shows a part of the results.
# Assay: qHTS of TDP-43 Inhibitors: NCGC Sytravon Library Screen; further: 0% is about no effect; nearly all actives have a fitted effect of over 55% in size
# Conditions: yeast TDP-43 toxicity rescue, BacTiter-Glo growth, 24 h; series mostly up to 46.1 µM; growth rescue (activation): at the top concentration
# Procedure, shortened: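 TDP-43-expressing yeast, pregrown in raffinose, seeded at OD600 0.02 in galactose medium with compound for 24 hr at 30 deg C. Growth read by BacTiter-Glo luminescence, so rescue of toxicity appears as activation.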
row,Structure (SMILES),growth rescue (activation)
1,COc1ccc(OC)c(NC(=O)c2sc3nc(C)cc(C)c3c2N)c1,inactive: -3.06%
2,CC(=O)Cn1c(C(F)(F)F)nc2ccccc21,inactive: 13.3%
3,Cc1cccc(OCC(=O)NCCNC(=O)c2cccnc2)c1,inactive: 10.2%
4,CNc1nc2c(c(=O)[nH]c(=O)n2C)n1CCCc1ccccc1,inactive: -2.71%
5,Cc1cccc(N(CC(=O)NCc2ccco2)C(=O)CCC(=O)Nc2nccs2)c1,inactive: 7.07%
6,N#C/C=C1/NC(=O)c2ccccc2S1,inactive: 4.17%
7,CC(C)c1ccc(C(=O)COC(=O)C(O)c2ccccc2)cc1 (stereo not given),inactive: 21.4%
8,COc1cc(/C=N/NS(=O)(=O)c2ccc3ccccc3c2)ccc1OCc1ccc(C(=O)O)cc1,inactive: 9.07%
9,CCOC(=O)c1ccccc1NC(=O)C=C(C)C,inactive: 16.6%
10,CC(C)(C)c1ccc(S(=O)(=O)N2CCNC(=O)C2)cc1,inactive: 19.1%
11,O=C(c1cc([N+](=O)[O-])ccc1N1CCOCC1)N1CCCC1,inactive: 10.3%
12,CCOC(=O)C1=C(C)NC2=C(C(=O)OC2)C1c1ccccc1 (stereo not given),inactive: 16.1%
13,COc1ccc(/C=C/C(=O)NCCCc2ccccc2)cc1,inactive: 7.1%
14,Cn1c(=O)c2c(-c3ccccc3F)c3c(nc2n(C)c1=O)-c1ccccc1C3O (stereo not given),inactive: -2.6%
15,CCOc1ccc2nc(N/C(N)=N/C(=S)Nc3cccc(OC)c3)nc(C)c2c1,inactive: 15.9%
16,COc1cc(/C=N/NC(=O)c2cccc3ccccc23)cc(OC)c1OC,inactive: 2.28%
17,CC(=O)Oc1ccc2nc(-c3ccco3)oc(=O)c2c1,inactive: -7.28%
18,CC(=O)c1cnc2ncnn2c1C,inactive: 1.44%
19,Cc1nn(-c2ccccc2)c(Cl)c1/C=N/NC(=O)c1ccccc1NS(=O)(=O)c1cccs1,inactive: 10.2%
20,Cc1cc(C)cc(NC(=S)N2CCC(NC(=O)c3ccccc3C)CC2)c1,inactive: 14.9%
21,CCN(CC)Cc1c(C(=O)N/N=C(\C)c2ccncc2)nnn1-c1nonc1N,inactive: 2.89%
22,O=[N+]([O-])c1ccc2c(c1)C(O)n1nc(-c3ccccc3)nc1S2 (stereo not given),inactive: -16.8%
23,COCCNC(=S)N1CCN(C(=O)C(=O)Nc2ccc(C(=O)OC)cc2)CC1,inactive: 11.9%
24,CCCCOc1ccc(C(=O)NCC(=O)NNC(=O)c2ccco2)cc1,inactive: 6.63%
25,O=C(Nc1ccc2c(c1)OCO2)C1Cc2c(-c3cccnc3)ccnc2O1 (stereo not given),inactive: 8.16%
26,CN(C)CCCNC(=S)N(Cc1cccs1)Cc1cc2cc3c(cc2[nH]c1=O)OCCO3,inactive: 0.518%
27,COc1ccccc1CCC(=O)Nc1ccc2c(c1)c(=O)n(C)n2Cc1ccc(F)cc1,inactive: 10.8%

row,Structure (SMILES),growth rescue (activation)
1,Cc1ccc(NC(=S)N/N=C/c2cccn2Cc2ccccc2F)cc1,inactive: -7.69%
2,CCOC(=O)C1=C(C)OC(N)=C(C#N)C1c1cc(SCC)oc1C (stereo not given),inactive: 12.3%
3,CCOc1cc(NC(=S)NCC2CCCO2)c(OCC)cc1NC(=O)C1CC1 (stereo not given),inactive: -6.24%
4,COc1ccc(S(=O)(=O)NCC2CCCO2)cc1NC(=O)c1ccc(Cl)cc1 (stereo not given),inactive: 3.44%
5,COc1cc(/C=N/NC(=O)Cn2cnc3ccccc3c2=O)ccc1O,inactive: 13.2%
6,CCC(=O)NC(=S)Nc1ccc(NC(=O)c2cc3ccccc3o2)c(OC)c1,inactive: 6.38%
7,COc1c2ccccc2c(OC)c2ccccc12,inactive: -1.69%
8,Nc1c2c(nc3cccc(Cl)c13)N(c1ccccc1)CC2,inactive: 13.9%
9,COc1ccc(S(=O)(=O)NC(C)C(=O)Nc2cccc([N+](=O)[O-])c2)cc1 (stereo not given),inactive: 7.14%
10,COc1ccccc1Cn1c(=S)[nH]c2ccc(F)cc2c1=O,inactive: 12.9%
11,COCCNC(=O)C1CCCN(C(=O)COc2ccc(C(C)(C)C)cc2)CC1 (stereo not given),inactive: -0.945%
12,O=C(O)C1CC(O)CN1c1nc(Cl)ccc1[N+](=O)[O-] (stereo not given),inactive: -9.72%
13,Cc1cccc(NS(=O)(=O)c2cnc(Cl)c(Br)c2)n1,inactive: 8.57%
14,C=CCNC(=O)C1=NN(c2c(F)c(F)cc(F)c2F)C(=O)CC1,inactive: -14%
15,CN1CCN(CCC(=O)Nc2cccc(Br)c2)CC1,inactive: 3.06%
16,O=C(CCC(=O)Nc1ccc(F)cc1)N/N=C/c1cc([N+](=O)[O-])ccc1O,inactive: 14.8%
17,Cn1c(=O)c2c(nc(N/N=C/c3cccnc3)n2Cc2ccccc2)n(C)c1=O,inactive: 4.7%
18,Cn1c2ccccc2c(=O)c2c(=O)n(-c3ccc(F)cc3)c(-c3cccs3)nc21,inactive: 0.305%
19,Cc1c(Cl)cccc1NC(=S)N1CCC(C(N)=O)(N2CCCCC2)CC1,inactive: 0.569%
20,CCOC(=O)c1sc(NC(=O)C(C)Oc2ccc(OC)cc2)c(C(=O)OCC)c1C (stereo not given),inactive: -3.4%
21,CCc1nnc(NC(=O)CSc2nc(-c3ccccc3)nc3ccccc23)s1,inactive: 5.26%
22,COc1cc(NC(=O)c2ccccc2)c(OC)cc1NC(=O)CSc1[nH]c(=O)cc(C)c1C#N,inactive: 21.2%
23,Cc1cc(C)n(CC(=O)N2c3ccccc3Sc3ccc(C(F)(F)F)cc32)n1,inactive: 27.5%
24,COCCNc1ccc(S(=O)(=O)N2CCCC2)cc1[N+](=O)[O-],inactive: -8.3%
25,COc1ccc(NC(=O)COC(=O)CN2C(=O)C3CC=CCC3C2=O)c([N+](=O)[O-])c1 (stereo not given),inactive: 9.07%
26,COc1ccc(N(C)S(=O)(=O)c2cccc(C(=O)NCc3ccc4c(c3)OCO4)c2)cc1,inactive: -11.7%
27,Cc1nnc(NC(=O)CCC(=O)NCc2ccco2)s1,inactive: -0.19%

row,Structure (SMILES),growth rescue (activation)
1,COc1ccc(CN2CC(C(=O)NCCCN3CCCCCC3)CC2=O)cc1 (stereo not given),inactive: 13.5%
2,CC(=O)Nc1ccc(S(=O)(=O)NCc2nc(-c3cccc(C)c3)no2)cc1,inactive: -19.6%
3,CCOc1ccc(CN2CCNC(=O)C2CC(=O)N(C)Cc2nonc2C)cc1 (stereo not given),inactive: -16.7%
4,CCN1CCN(c2ncc(C(=O)N3CCN(c4ccccc4OC)CC3)c3ccccc23)CC1,inactive: 15.4%
5,COCCNC(=O)Cn1cnc2sc(C)c(S(=O)(=O)N3CCN(c4ccccc4OC)CC3)c2c1=O,inactive: -0.204%
6,CCOc1ccc(Br)cc1S(=O)(=O)Nc1ncn[nH]1,inactive: 6.86%
7,Cc1ccc(-n2nnnc2SCC(=O)NNC(=O)c2ccc([N+](=O)[O-])cc2)cc1,inactive: 0.116%
8,CCOC(=O)C1(C)CCN1C(=O)c1cccc(Cl)c1 (stereo not given),inactive: 5.13%
9,COc1ccccc1NC(=O)Cn1nnc(-c2ccccc2NC(=O)c2cccs2)n1,inactive: 14.2%
10,COc1ccc(NC(=O)CN(C)CC(=O)Nc2ccc(Cl)c(S(=O)(=O)N(C)C)c2)cc1,inactive: -4.16%
11,CCCc1nnc(SCc2ccc(C(=O)OC)o2)n1N,inactive: -11.1%
12,Cc1cc(C)n(-c2cc(O)c(-n3nc(C)cc3C)cc2O)n1,inactive: -16.6%
13,CCOC(=O)C1(C(F)(F)F)N=C(c2cccnc2)OC(N2CCCCC2)=N1 (stereo not given),inactive: 13.2%
14,COc1ccccc1NC(=O)CN(Cc1ccco1)C(=O)c1ccc(N2CCCC2=O)cc1,inactive: 2.44%
15,COc1ccc(C(CNC(=O)c2ccc(S(=O)(=O)Nc3ccc(F)cc3)cc2)N(C)C)cc1 (stereo not given),inactive: -3.68%
16,O=C(/C=C/c1ccccc1Cl)N(Cc1ccccc1)C1CCS(=O)(=O)C1 (stereo not given),inactive: 16.4%
17,Cc1ccc(Cn2nnc3c(=O)[nH]c(C4CCCN(C(=O)c5ccco5)C4)nc32)cc1 (stereo not given),inactive: 10.7%
18,CC(C)Cn1c(=O)c2sccc2n2c(CCCC(=O)NC3CCN(Cc4ccccc4)CC3)nnc12,inactive: 7.69%
19,CCN(CC)CCCNC(=O)c1cc(Cl)c(NC(=O)C2=C(C)OCCS2)cc1OC,inactive: 3.21%
20,CCCCNC(=O)c1[nH]c(C)c(C(C)=O)c1C,inactive: 5.07%
21,CC(=O)c1cccc(NC(=O)CCn2c(=O)oc3ccccc32)c1,inactive: -0.694%
22,Cc1cc(C)cc(-c2nnc(SCc3ccc(C(=O)O)cc3)o2)c1,inactive: 3.45%
23,COc1cc(OC)c(N(C)S(=O)(=O)c2cccc(C(=O)NC3=NCCS3)c2)cc1Cl,inactive: 28.5%
24,CC(=O)c1ccc(O)c(CO)c1,inactive: -32.4%
25,Cc1[nH]c(=S)sc1Cc1ccc(F)cc1,inactive: 29.3%
26,COc1ccc(NC(=O)c2ccc(NCC3CCCO3)c([N+](=O)[O-])c2)cc1 (stereo not given),inactive: -10.9%
27,CC1=NOC(=O)/C1=C\c1ccc(-c2ccc(Cl)c(C(=O)O)c2)o1,inactive: -0.794%

row,Structure (SMILES),growth rescue (activation)
1,N#Cc1cccc(NC(=O)CSc2nnc(-c3n[nH]c4ccccc34)o2)c1,inactive: 3.6%
2,CCOC(=O)C1(CCOc2ccccc2)CCN(Cc2ccc(COC)o2)CC1,inactive: -0.214%
3,COc1ccccc1N1CCN(C(=O)c2ccc3c(c2)N(Cc2cc(C)ccc2C)C(=O)c2ccccc2S3(=O)=O)CC1,inactive: 14.1%
4,O=C(NCCc1ccccc1)c1cc(=O)c2ccccc2o1,inactive: 26.8%
5,NC(=O)c1ccc(-n2c(CCC(=O)O)ccc2-c2cccs2)cc1,inactive: 14.8%
6,COc1ccc(OCCC(=O)NC2CCCCC2)cc1,inactive: 13.8%
7,C=CCn1c(SCC(=O)N2CCOCC2)nc(O)c(Cc2ccccc2)c1=O,inactive: 1.22%
8,FC(F)(F)c1ccccc1NC(=S)N1CCc2ccccc2C1,inactive: 40.1%
9,CCn1nc(CC(=O)Nc2nnc(CC(=O)N3CCCCC3)s2)c2ccccc2c1=O,inactive: 32.9%
10,CCN(CC)C(=O)CNc1ccc(C(F)(F)F)cc1[N+](=O)[O-],inactive: 19.1%
11,CC(/C=N\NC(=O)Cn1c(C)nc2ccccc21)=C\c1ccccc1,inactive: 1.08%
12,COC(=O)c1ccc(COC(=O)CNS(=O)(=O)c2ccc(C)cc2)cc1,inactive: 14.4%
13,CCCCOC(=O)Nc1nnc(/C=C/c2ccc(OC)cc2)s1,inactive: -14%
14,Cc1ccc(NC(=O)COc2cccnc2[N+](=O)[O-])cc1S(=O)(=O)N1CCCCC1,inactive: 6.52%
15,CC1=C(C(N)=O)C(c2ccc(Cl)c(Cl)c2)n2ncnc2N1 (stereo not given),inactive: 3.75%
16,O=[N+]([O-])c1cc(S(=O)(=O)NCCN2CCOCC2)ccc1Sc1nnnn1-c1ccccc1,inactive: 17%
17,CCCCOc1ccc(C(=O)NNC(=O)c2cnccn2)cc1OC,inactive: -5.56%
18,C=CCOc1ccccc1CN(CCc1ccccc1)C(=O)c1cccc(S(C)(=O)=O)c1,inactive: 1.68%
19,CCOC(=O)c1ccc(NC2Nc3cc(C)nn3S2)cc1 (stereo not given),inactive: 23.3%
20,CC(=O)Nc1ccc(S(=O)(=O)NCC2CCC(C(=O)NCc3ccccc3)CC2)cc1 (stereo not given),inactive: -3.41%
21,C=CCNC(=O)c1ccccc1NC(=O)c1ccccc1N(C)S(C)(=O)=O,inactive: 11.4%
22,Cc1ccc(N(C)S(=O)(=O)c2cccc(C(=O)N(C)Cc3cnn(-c4ccccc4)c3)c2)cc1,inactive: 41.1%
23,Cc1ccc2c(CN3CCN(Cc4ccccc4)CC3)cc(=O)oc2c1C,inactive: -10.2%
24,Cc1ccc(C(=O)Nc2cccc(-c3cn4ccccc4n3)c2)cc1,inactive: 4.96%
